The list shows a part of the results.

The assay concerns the target T1, OsWOX13 (Oryza sativa, UniProt Q5QMM3 1-267).
T1 sequence: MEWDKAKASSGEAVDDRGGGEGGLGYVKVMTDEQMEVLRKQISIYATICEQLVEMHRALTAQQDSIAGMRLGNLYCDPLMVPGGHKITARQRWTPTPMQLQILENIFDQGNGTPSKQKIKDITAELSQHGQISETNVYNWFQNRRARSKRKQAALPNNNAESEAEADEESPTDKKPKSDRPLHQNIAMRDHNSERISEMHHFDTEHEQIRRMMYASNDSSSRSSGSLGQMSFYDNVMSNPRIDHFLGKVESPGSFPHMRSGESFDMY
Nature of the assay: protein-binding microarray (RPBM); PBS, 2% BSA, 51.3 ng/ul salmon testes DNA, 50 uM zinc acetate, 200 nM TF, 25 C, 1 h; high values mean tight binding. The following applies: protein: recombinant; tags: N-terminal polyhistidine and DsRed monomer fusion (pET32a); label: CyDye5-dUTP incorporated in the synthesized complementary strand; 3' TTTTT single-stranded linker to array surface; dsDNA, one strand shown. The essentials:
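Transcription factors were each fused at the N-terminus to a polyhistidine tag plus DsRed and expressed in E. coli BL21-CodonPlus before Ni–NTA purification. Binding to a double-stranded custom Agilent array was carried out with 200 nM protein at 25 °C for 1 h in PBS, 2% BSA, salmon testes DNA and 50 µM zinc acetate. The binding signal is per-feature fluorescence intensity, in arbitrary units, on an Axon 4000B scanner.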
Take “TACGATACTTGCTAATTAATAGGCATTTTATACCTATGTACGGAGTCACCTAGTGCAG”: the binding signal was 4300 fluorescence intensity (a.u.). For “TATATGAAATTATTATTTGATTTCTTGATCATATAATGTACGGAGTCACCTAGTGCAG” the value was 13300 fluorescence intensity (a.u.).

As for “AATTAATTATGCGCTAAGTAGGAAAGGTCCCAACTAACAGCGGAGTCACCTAGTGCAG”, the binding signal is 14100 fluorescence intensity (a.u.). As for “TATATTCAATTATTGATTTGAAACTAATTTAGTATTATAACGGAGTCACCTAGTGCAG”, the binding signal is 16300 fluorescence intensity (a.u.). As to “AAAATCAAACCACCATAGATAGATAGAAGAACAAGAAGAGCGGAGTCACCTAGTGCAG”, the binding signal was 3920 fluorescence intensity (a.u.).

With “ACCTCATCATCTAATCTTATGTAGCAAATTTAGGAGCAGTCGGAGTCACCTAGTGCAG”, the binding signal was 3680 fluorescence intensity (a.u.). With “AGTAATTAGCCACACTGCATATTAGCCACGACACCACAAGCGGAGTCACCTAGTGCAG”, the binding signal is 11200 fluorescence intensity (a.u.). Consider “TTCACAATTCTCAATTAGTTATGTCCAATTAAGATCCACCCGGAGTCACCTAGTGCAG”, for which the binding signal was 8900 fluorescence intensity (a.u.). On to “AAGAATTAATTAAACTCAAAGTGGTAGAAGAACTATTTAGCGGAGTCACCTAGTGCAG”, for which the binding signal is 13900 fluorescence intensity (a.u.). For “TTTAATTAATCATACTCTAATCCATAGCTCTTTTACTTGCCGGAGTCACCTAGTGCAG” the value was 26900 fluorescence intensity (a.u.); for “AATGTTACAAATTGAAAATATACCGTCAAGATTGTATATGCGGAGTCACCTAGTGCAG”, 8400 fluorescence intensity (a.u.); for “AGTAAACAATGATTAATTATGTTGTTAATTATAAGAAACTCGGAGTCACCTAGTGCAG”, 20700 fluorescence intensity (a.u.). As to “TCTAATAGCAATAGATGACTGGTGGTGACGCGTAACGTAGCGGAGTCACCTAGTGCAG”, the binding signal was 15600 fluorescence intensity (a.u.). Take “ATTCGTCTATCTTTATCAATTTGCGATGTAAATCGTCTGCCGGAGTCACCTAGTGCAG”: the binding signal was 5520 fluorescence intensity (a.u.). “CCTTAACTAATCAAAACCGGTCACAATAGATCCTTCGGTGCGGAGTCACCTAGTGCAG”: the binding signal was 13500 fluorescence intensity (a.u.).

Take “ATAGATGATTTGCCGCTAGTAGTGGGCTATATGGGCAGTCCGGAGTCACCTAGTGCAG”: the binding signal was 24500 fluorescence intensity (a.u.). Regarding “ACAACACATCATTGACACACAACTATACCAACGTTCTATCCGGAGTCACCTAGTGCAG”, the binding signal was 5730 fluorescence intensity (a.u.). On to “ATATATATATATATATACAGATATACACACACACACACCGCGGAGTCACCTAGTGCAG”, for which the binding signal is 15300 fluorescence intensity (a.u.). Take “AAAATATTTTACATAATTATAATTTATTATTGAGTGAATTCGGAGTCACCTAGTGCAG”: the binding signal is 11200 fluorescence intensity (a.u.). Regarding “CAGAATGGACCTAATTAACGACCACCATCAGCAGAAAATGCGGAGTCACCTAGTGCAG”, the binding signal was 12100 fluorescence intensity (a.u.). “GGGCCTGGTCCTGATTGGACTTCCTTATCTGTCTATCACACGGAGTCACCTAGTGCAG”: the binding signal was 10700 fluorescence intensity (a.u.). Regarding “TTAGATTAGAGGAAGATGGGGTTGGTACGTGCGTTGGTAACGGAGTCACCTAGTGCAG”, the binding signal is 7960 fluorescence intensity (a.u.). For the sequence “ATAACTGAACTGATTTGTTTCAGGATAAGTAAGAATAACACGGAGTCACCTAGTGCAG”, the binding signal is 6950 fluorescence intensity (a.u.). The figure for “AAAGTAGTTCAATTAGAAATAAATTAAAAGAACTGGTAAACGGAGTCACCTAGTGCAG” is 6810 fluorescence intensity (a.u.). Take “GGCATGTATCCAATTAACGCTTACAACTATAGGTACCGGTCGGAGTCACCTAGTGCAG”: the binding signal is 3430 fluorescence intensity (a.u.). With “ACTCTTTAACTGATTTGGGTAATCAAACTAAATGTTCACTCGGAGTCACCTAGTGCAG”, the binding signal was 17200 fluorescence intensity (a.u.). On to “AATATATTAATTGATTACGAGAGTTTTACTTCAGTGGCAACGGAGTCACCTAGTGCAG”, for which the binding signal is 25500 fluorescence intensity (a.u.). In the case of “ATTGAGTCAATCCACACTTTATTAGCACATTGGCCCACACCGGAGTCACCTAGTGCAG”, the binding signal was 3510 fluorescence intensity (a.u.). With “TTACAAGAGATTGACAATTCACTTCATCTTTGATTAGATGCGGAGTCACCTAGTGCAG”, the binding signal is 33800 fluorescence intensity (a.u.). As to “ATTAATTACGATATATACAGAGTGCTGTGTGCTCTTGACTCGGAGTCACCTAGTGCAG”, the binding signal is 12900 fluorescence intensity (a.u.). The figure for “TCTTACTTAACATATTTAATAATCATGGTTCTTTCAATAACGGAGTCACCTAGTGCAG” is 3300 fluorescence intensity (a.u.); for “TTAATTAGACTGGGAGGCCTGTTCTTGTTCTTTAATTTAGCGGAGTCACCTAGTGCAG” it is 35500 fluorescence intensity (a.u.); for “ATCTTGGTAAATTGGTCCTTGGTTACTCCGATTTGTTGGACGGAGTCACCTAGTGCAG” it is 5000 fluorescence intensity (a.u.). For “TATTATAATGTTGATTTGATTTGACTAATAATTAAGGCCACGGAGTCACCTAGTGCAG”, the binding signal was 30100 fluorescence intensity (a.u.). As to “GTTGGAGAGAAATTAGGATTGGATTGATTCATATCGAGCTCGGAGTCACCTAGTGCAG”, the binding signal was 13200 fluorescence intensity (a.u.). Turning to “AACAAATTACAAAACCCAGCTCTGATCTTGCACGCGCTGACGGAGTCACCTAGTGCAG”, the binding signal was 6620 fluorescence intensity (a.u.).

As for “TCTGATAGAAGCTTGACTGAACATTGAACAGTTTTAGTCTCGGAGTCACCTAGTGCAG”, the binding signal is 43900 fluorescence intensity (a.u.). As to “CATTGATTTTGTTTTATTATTTTGGTTGGTGGTGCCGTGTCGGAGTCACCTAGTGCAG”, the binding signal is 39100 fluorescence intensity (a.u.). For the sequence “CGTCCATCATCTCCATTTTGTTCTCTGTCTCTTCCCCTTGCGGAGTCACCTAGTGCAG”, the binding signal is 3610 fluorescence intensity (a.u.). For the sequence “CATCTTGTCCTGGTGGATTGATTGGAGGTGGTCTTCGTGCCGGAGTCACCTAGTGCAG”, the binding signal is 18900 fluorescence intensity (a.u.). On to “CACTGATTTTGATAGTTGAGGGACCCGTTGTATTTGATTTCGGAGTCACCTAGTGCAG”, for which the binding signal was 21500 fluorescence intensity (a.u.).

“CCCAAAATTAAATTTTAAAATCTAATTTTGGTAGCGATTGCGGAGTCACCTAGTGCAG”: the binding signal was 41900 fluorescence intensity (a.u.).

The values are drawn from article PMC7819943, “Rice protein-binding microarrays: a tool to detect cis-acting elements near promoter regions in rice”.
